# Results from PubChem BioAssay AID1259400 (National Center for Advancing Translational Sciences (NCATS), 2018).
# Screen size: about 350,000 compounds; about 2,100 (0.6%) were called active. The shares of active, inactive and inconclusive entries below differ from those in the screen.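 The calls were made as follows: active = activity change of -60% or lower, but not beyond a set lower limit; inconclusive = change between -60% and -40%, or beyond the set limit; inactive = change above -40%.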
# Target: Relaxin receptor 1 (Homo sapiens) (UniProt Q9HBX9)
# UniProt Q9HBX9, sequence (Q9HBX9 whole entry, looked up): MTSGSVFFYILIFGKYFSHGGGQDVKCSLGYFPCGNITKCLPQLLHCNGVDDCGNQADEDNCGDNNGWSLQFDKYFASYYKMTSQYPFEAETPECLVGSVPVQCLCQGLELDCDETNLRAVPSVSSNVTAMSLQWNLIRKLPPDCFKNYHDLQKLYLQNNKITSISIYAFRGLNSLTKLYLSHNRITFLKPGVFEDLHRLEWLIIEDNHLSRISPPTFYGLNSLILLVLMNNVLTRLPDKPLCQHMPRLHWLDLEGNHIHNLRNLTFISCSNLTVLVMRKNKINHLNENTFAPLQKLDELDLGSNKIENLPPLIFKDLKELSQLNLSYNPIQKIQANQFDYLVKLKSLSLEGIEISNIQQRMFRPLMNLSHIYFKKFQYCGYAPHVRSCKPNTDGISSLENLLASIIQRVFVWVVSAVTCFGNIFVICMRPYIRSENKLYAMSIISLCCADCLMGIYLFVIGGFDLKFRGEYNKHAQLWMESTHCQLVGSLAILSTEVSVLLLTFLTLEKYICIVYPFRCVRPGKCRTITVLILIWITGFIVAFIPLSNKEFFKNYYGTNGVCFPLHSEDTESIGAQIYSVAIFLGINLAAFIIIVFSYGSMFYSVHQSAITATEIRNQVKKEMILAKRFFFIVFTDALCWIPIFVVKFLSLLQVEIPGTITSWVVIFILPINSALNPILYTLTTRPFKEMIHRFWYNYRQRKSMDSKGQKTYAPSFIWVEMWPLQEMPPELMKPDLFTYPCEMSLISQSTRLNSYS
# Test: qHTS Assay for Antagonists of the Relaxin Receptor RXFP1
# Details: HEK293-RXFP1, relaxin-stimulated cAMP HTRF, 30 min; at 57.5 µM; hits give low values
# Description: The relaxin hormone is involved in the variety of biological functions in normal tissues and diseases. The role of relaxin is well-established in female reproduction and parturition, mammary gland and endometrial development, maintenance of myometrial quiescence during pregnancy. Relaxin signaling through its G protein-coupled receptor (GPCR) RXFP1 results in ECM remodeling through regulation of collagen deposition, cell invasiveness, proliferation and overall tissue homeostasis. […] Recombinant human relaxin (rhRlx) is currently being tested in clinical trials as a protective agent in congestive heart failure, in treating severe preeclampsia, and as an anti-fibrotic agent in various organs. […] Upon relaxin binding RXFP1 activation leads to the activation of adenylate cyclase (AC) via G?s. cAMP will activate PKA, which phosphorylates many signaling proteins. Thus, detection of cAMP increase is an easy and reliable indication of relaxin receptor activation. To screen for antagonists of the relaxin receptor, a HEK293T cell line stably transfected with RXFP1 was used. RXFP1 activation by relaxin in presence of various concentrations of tested compounds was assayed by changes in cAMP levels as detected with a time-resolved fluorescence energy transfer (TR-FRET) cAMP detection kit.
# For the primary screening, we used HTRF(R) (Homogenous Time-Resolved Fluorescence) cAMP HiRange assay (Cisbio Bioassays, 62AM6PEJ). Presence of cAMP in the cell lysate disrupts binding between the Cryptate-labeled anti-cAMP and d2-labeled cAMP pair, leading to a decrease in TR-FRET signal. The libraries were screened at two doses (57microM and 11microM), followed by a confirmation of the hits at 7-point serial dilution in the range of final concentrations [57microM - 78nM]. Data were normalized to the controls for basal activity (buffer only) and 100% activity (5 nM porcine relaxin). The EC50 values were determined from concentration-response data modeled with the standard Hill equation. NCGC Assay Protocol Summary: HiHEK (Hawaiian HEK293 LGR7 stably transfected with human RXFP1) were grown in the following media: DMEM+10%FBS+Pen/Strep + Geneticin (1mg/ml). For the assay, the cells were seeded in DMEM+Pen/Strep (with no serum & selective antibiotics) at 2,100 cells/ 3microl/well with MultiDrop Combi dispenser (Thermo Scientific, Logan, UT) onto white tissue culture treated solid bottom1536-well plates (Greiner #789173-F) and allowed to attach/recover overnight at 37 degrees C, 5% CO2. Next, 23nl/well of compound solutions in DMSO were transferred into wells with a pintool (Kalypsis, San Diego, CA). […] EC80 (relaxin at 50pM final concentration) was dispensed to the rest of the plate except columns 1&2 which were used as a negative control (EC0, buffer only), 1microl/well also. The cells were stimulated by relaxin in the presence of compounds for 30 minutes at 37 degrees C, 5% CO2. The detection reagents were prepared individually by dilution in Lysis buffer (supplied with the assay kit) just prior to dispensing. 1microl/well of cAMP-d2 and 1microl/well anti-cAMP-Eu3+-Cryptate antibodies were added simultaneously with BioRAPTR FRDtrade mark Workstation (Beckman Coulter). The plates were incubated at ambient temperature for 30 minutes and, then, FRET signal was read on Envision plate reader (PerkinElmer, Waltham, MA), at wavelengths 340nm (excitation), 615nm & 665nm (emission of donor and acceptor channels respectively).
# % is scaled to controls: 0 for no effect and ±100 for the full control effect.
row,Structure (SMILES),"activity change, negative = inhibition"
1,Cc1ccccc1CNC(=O)CC1C(=O)NCCN1Cc1c(F)cccc1Cl (configuration not stated),inconclusive: -49.1%
2,Cc1ccn2c(NC3CCCC3)c(-c3ccccn3)nc2c1,inconclusive: -43.5%
3,COc1ccc(C2CC(c3ccccc3)=NN2C(=O)CSc2nccc(=O)[nH]2)cc1 (configuration not stated),inconclusive: -46.8%
4,COc1cccc(CN2CCCN(S(=O)(=O)c3ccc(Br)cc3)CC2)c1,inactive: -6.1%
5,O=C(/C=C/c1ccco1)Oc1cc(Br)cc(/C=N/NC(=O)c2ccccc2O)c1,inconclusive: -41.2%
6,Oc1cccc(Nc2nc(-c3ccccc3Cl)nc3ccccc23)c1,inconclusive: -41.9%
7,Cn1c(-c2sc3cc(C(F)(F)F)cnc3c2-c2ccccn2)n[nH]c1=S,inconclusive: -52.3%
8,O=C(C(=NNc1ccccc1)c1ccccc1)c1ccccc1,inconclusive: -44%
9,O=C(O)c1ccc2nc(-c3ccco3)c(-c3ccco3)nc2c1,inconclusive: -59%
10,COC(=O)CSc1nc(N)c2c3c(sc2n1)C(c1ccccc1)SC(c1ccccc1)C3 (configuration not stated),inconclusive: -47.1%
11,CSc1nc2c(cnn2-c2ccccc2)c(=O)n1N,inactive: -4.91%
12,Cc1nnc(C)n1/N=C/c1cc(Br)cc(Br)c1O,inconclusive: -42.3%
13,Cc1ccc(O)c(-c2n[nH]c3c2C(c2ccccc2F)N(Cc2ccco2)C3=O)c1 (configuration not stated),active: -68.8%
14,CC(C)(C)NCC(O)(c1ccc(Cl)cc1)c1ccc(Cl)cc1,inconclusive: -42.9%
15,CC(=O)N1N=C2/C(=C/c3ccccc3)CCCC2C1c1ccccc1 (configuration not stated),inconclusive: -49%
16,Cc1ccccc1OCC(=O)Nc1nnc(-c2ccncc2)s1,inconclusive: -41.1%
17,COc1ccccc1C1CCCN1Cc1nc(-c2ccc(C)s2)oc1C (configuration not stated),active: -65.5%
18,CCC(C)C(NS(=O)(=O)c1ccc(C)cc1)C(=O)NCCCN1CCOCC1 (configuration not stated),inconclusive: -56.4%
19,CCc1ccccc1NC(=O)C1CCCN(c2ncnc3onc(C)c23)C1 (configuration not stated),inactive: -8.89%
20,COc1cc2c(cc1OC)-c1cc(NC3CCCC3)nc(=O)n1CC2,inactive: 1.13%
21,O=C(N/N=C/c1c[nH]c2c1ccc1ccccc12)c1ccc([N+](=O)[O-])cc1,active: -68.3%
22,CCCCn1c(O)c(/C=C/C=C/C=Nc2ccccc2)sc1=S,inconclusive: -40.2%

row,Structure (SMILES),"activity change, negative = inhibition"
1,CCc1nn2c(=O)cc(COC(=O)c3ccccc3NC(=O)C3CCCCC3)nc2s1,inactive: 8.93%
2,COC(=O)c1ccc(Oc2nc(N(C)C)nc(N3CCOCC3)n2)cc1,inactive: -6.55%
3,Cc1cc(C)nc(NN2C(=O)/C(=C/c3ccc(O)cc3)SC2=S)n1,active: -116%
4,Cc1ccc(CN(Cc2ccco2)C(=O)COc2ccc(Cl)cc2)o1,active: -68.9%
5,Cc1cc(C)c2c(n1)sc1c(O)cc(=O)[nH]c12,inconclusive: -49.5%
6,O=C(OCC(=O)c1ccc[nH]1)c1ccc(Cl)c(Cl)c1,active: -87.1%
7,OC1(c2cccc(C(F)(F)F)c2)CCN(c2ncnc3c2[nH]c2ccccc23)CC1,inconclusive: -43.5%
8,CCCCCCCCCn1c2c(c(=N)c3c1CCC3)CCC2,active: -70.2%
9,COc1cnn(-c2cccc(Cl)c2)c(=O)c1Cl,inactive: 2.01%
10,N#C/C(=C\c1ccc(Sc2ccccc2)o1)c1nc2ccccc2[nH]1,inconclusive: -43.7%
11,CCOC(=O)c1sc(NC(=O)Nc2ccccc2)cc1C,inconclusive: -52.2%
12,O=C(NNC(=S)Nc1ccc(Cl)c(Cl)c1)c1cccc([N+](=O)[O-])c1,inconclusive: -58.1%
13,O=C(C1CCC(Cn2c(=O)c3sccc3n(Cc3ccccc3F)c2=O)CC1)N1CCCCC1 (configuration not stated),inactive: -8.5%
14,CN(C)C(=O)Nc1ccc(Cl)c(Cl)c1,inactive: 5.43%
15,Cc1cccc(-c2noc(CN(C)C(=O)c3ccoc3C)n2)c1,inactive: 8.72%
16,CCC1CN(C(=O)Nc2cccc3c2CCCC3)c2ccccc2O1 (configuration not stated),inconclusive: -54.6%
17,Cc1[nH]nc(-c2ccc(O)c(C)c2O)c1-c1cnn(-c2ccccc2)c1,active: -87.2%
18,O=C(c1ccccc1)N1N=C(C(F)(F)F)CC1(O)c1ccccc1O (configuration not stated),inconclusive: -40.6%
19,O=C(Nc1cccc(Cl)c1)c1ccc(F)c(S(=O)(=O)N2CCC3(CC2)OCCO3)c1,inconclusive: -49.4%
20,Cc1occc1-c1nnc(SCC(=O)Nc2nc(C(C)(C)C)cs2)o1,inconclusive: -48.4%
21,O=C(Nc1ccc(-c2cn3ccccc3n2)cc1)c1ccc(Cl)cc1,inactive: -19.9%
22,COc1ccc(C2=C(CN(C)C)C(c3ccccc3)c3ccccc3O2)cc1 (configuration not stated),inconclusive: -56.5%

row,Structure (SMILES),"activity change, negative = inhibition"
1,O=C1/C(=C/c2ccccc2)CN(C(=O)CCN2CCOCC2)C/C1=C\c1ccccc1,inconclusive: -44.4%
2,COc1ccccc1N1CCN(CC(O)COc2ccc(C)cc2C(C)(C)C)CC1 (configuration not stated),active: -82.9%
3,CCC(C(=O)N1CCN(c2ccccc2)CC1)n1nc(C)c2sc3ccccc3c2c1=O (configuration not stated),inactive: -13.2%
4,O=C1NC(CCc2ccccc2)C(=O)N1Cc1ccc(Br)cc1 (configuration not stated),inconclusive: -53.4%
5,Cc1ccc(C)c(N2CCN(c3nc4c(S(=O)(=O)c5ccccc5)nnn4c4ccc(Cl)cc34)CC2)c1,inactive: -1.42%
6,COc1ccc(Br)cc1CN(C)CC(O)COc1ccc(Br)cc1 (configuration not stated),active: -63.5%
7,Cc1ccc(-c2nn(-c3ccccc3)cc2C=C2C(=O)CC(C)(C)CC2=O)cc1,inconclusive: -51.7%
8,CCC(CC)C(=O)Nc1nnc(-c2cccs2)s1,inactive: 5.61%
9,Cc1cc(C)c(OCC(=O)N(Cc2cccc(F)c2)Cc2ccco2)c(C)c1,active: -102%
10,O=C(Cc1ccc([N+](=O)[O-])cc1)N/N=C/c1ccc([N+](=O)[O-])o1,inactive: 6.03%
11,CCOCCCn1c(=S)[nH]c2cc(C(=O)NCC(OC)OC)ccc2c1=O,active: -65.8%
12,Cc1cc(C)cc(NC(=O)N2CCCN(Cc3c(F)cccc3Cl)CC2)c1,inconclusive: -42.5%
13,CCN(CC)c1nc(OCCNC(=O)Nc2ccccc2)nc(N(CC)CC)n1,inconclusive: -52%
14,COC(=O)c1c(C)nn(-c2ccc(F)cc2)c1-n1cccc1,inactive: -16.3%
15,CCCCc1n[nH]c2c1/C(=N/OCC)CC(C)(C)C2,inconclusive: -44%
16,CCOc1ccc(-n2c(=S)sc3c(=O)[nH]c(SCC(=O)C(C)(C)C)nc32)cc1,inconclusive: -48.8%
17,OC(CNCc1ccc(F)cc1)(c1ccc(F)cc1)c1ccc(F)cc1,inconclusive: -42.8%
18,Cc1ccc(SC(CC(=O)c2ccc(C)cc2)C(=O)O)cc1 (configuration not stated),inconclusive: -59.5%
19,CC1CC(C)CN(CCCCOc2ccc([N+](=O)[O-])cc2)C1 (configuration not stated),inactive: -3.59%
20,Cc1cccc2nc(CSc3nnc(N)s3)cn12,inconclusive: -41.2%
21,O=S(=O)(Nc1cccc(-c2ccc(N3CCCCCC3)nn2)c1)c1ccc(C(F)(F)F)cc1,active: -68%
22,O=C(c1ccco1)N1N=C(c2ccc(Br)cc2)CC1(O)C(F)(F)F (configuration not stated),inconclusive: -57.5%

row,Structure (SMILES),"activity change, negative = inhibition"
1,COc1cc(NC(=O)CCCn2c(=S)[nH]c3ccccc3c2=O)cc(OC)c1OC,inconclusive: -51.4%
2,CCc1ccc(C2c3[nH]c4ccccc4c3CCN2C(=O)CNC(N)=O)cc1 (configuration not stated),inconclusive: -48.4%
3,Cc1ccccc1OCc1nnc(SCC(=O)Nc2c(C)n(C)n(-c3ccccc3)c2=O)n1-c1ccccc1,inconclusive: -48.7%
4,O=C(NC1CC1)C1CCN(C2CCN(C(=O)/C=C/c3ccc(F)cc3)CC2)CC1,inconclusive: -44.1%
5,CC(C)(C)C(=O)Nc1nc(-c2ccc3c(c2)OCO3)cs1,inconclusive: -52.8%
6,Cc1ccc(CN2CCSc3ccc(C(=O)NCC4CCCO4)cc32)cc1 (configuration not stated),inconclusive: -45.7%
7,O=C(c1ccco1)N1CCN(C(=O)c2cc(-c3ccncc3)nc3ccc(Br)cc23)CC1,inactive: -4.51%
8,S=c1[nH]nc(-c2cc(-c3ccccc3)n[nH]2)n1/N=C/c1c2ccccc2cc2ccccc12,active: -78.7%
9,CCc1cccc2c(C(=O)COC(=O)[C@@H]3CC(O)CN3S(=O)(=O)c3ccccc3[N+](=O)[O-])c[nH]c12 (some centres not stated),active: -80%
10,COc1cc(C2CC(=O)c3c([nH]c(C(=O)OC4CCCCC4)c3C)C2)cc(OC)c1OC (configuration not stated),inconclusive: -50.5%
11,CCCn1c(=O)c(C(=O)NNC(=O)c2cccc([N+](=O)[O-])c2)c(O)c2ccccc21,inconclusive: -58.6%
12,CC(=O)N1c2c(cc(Br)cc2S(=O)(=O)NCc2ccc(C)cc2)CC1C (configuration not stated),inactive: 7.15%
13,CCc1ccc2nc(N(CCCN(C)C)C(=O)c3ccc(C(=O)c4ccccc4)cc3)sc2c1,inactive: -13.3%
14,CC(=O)Nc1ccc(C(=O)Nc2ccc(S(=O)(=O)Nc3nccc(C)n3)cc2)cc1,inactive: 1.44%
15,CCC(Sc1nncn2c1cc1occc12)C(=O)Nc1ccc(C)c(Cl)c1 (configuration not stated),inconclusive: -40.2%
16,Cc1c2cnn(CC(=O)Nc3cccc(C(F)(F)F)c3)c(=O)c2c(C)n1Cc1ccccc1Cl,inactive: -7.86%
17,CC(C)C(C(=O)Nc1nccs1)c1ccc(Cl)cc1 (configuration not stated),active: -83.3%
18,CC1=CC(C)(C)N2C(=O)C(=O)c3cc(OC(=O)c4ccco4)cc1c32,inconclusive: -45.7%
19,Fc1ccc(Nc2c3c(nc4ccccc24)CCC3)cc1,inactive: -3.93%
20,Cc1nc2cc(-c3ccsc3-n3c(C)ccc3C)[nH]n2c(=O)c1Cl,inconclusive: -59.2%
21,Cc1ccc(C)c(N2CCN(C(=O)C3CCN(c4nc5ccc(C)cc5[nH]4)CC3)CC2)c1,active: -69.2%
